Hit rate of the full screen: of about 410,000 compounds, about 6,400 (1.6%) were called active. The inconclusive results got no clear call from the source; some entries with a clear call stand among them for comparison. Calls come from the whole dose curve; as a rule, active = well fitted inhibition curve with a large enough effect; inconclusive = small, poorly fitted or top-dose-only effect; inactive = no such curve, though single readings can be large or run the other way. No potency is given beside an inconclusive call; the fits are too rough.
target: Glucagon-like peptide 1 receptor (Homo sapiens) (UniProt P43220); experiment: qHTS of GLP-1 Receptor Inverse Agonists (Inhibition Mode); conditions: HEK293 GLP-1R CRE-luciferase, luminescence, 24 h, GLP-1R form is constitutively active; activity change, negative = inhibition: at 38.3 µM (top of the series) unless noted; note: nearly all actives have a fitted effect of over 55% in size
How it was run: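 Using stably transfected HEK293 (constitutively active GLP-1R, cAMP-luciferase reporter), compounds were incubated 24 hr and luciferase measured by luminescence.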
% is set by controls: 0 for no effect and ±100 for the full control effect; potency is the fitted concentration of half-maximal effect; tags give direction and shape of the fitted curve.

UniProt P43220, sequence (P43220 whole entry, looked up): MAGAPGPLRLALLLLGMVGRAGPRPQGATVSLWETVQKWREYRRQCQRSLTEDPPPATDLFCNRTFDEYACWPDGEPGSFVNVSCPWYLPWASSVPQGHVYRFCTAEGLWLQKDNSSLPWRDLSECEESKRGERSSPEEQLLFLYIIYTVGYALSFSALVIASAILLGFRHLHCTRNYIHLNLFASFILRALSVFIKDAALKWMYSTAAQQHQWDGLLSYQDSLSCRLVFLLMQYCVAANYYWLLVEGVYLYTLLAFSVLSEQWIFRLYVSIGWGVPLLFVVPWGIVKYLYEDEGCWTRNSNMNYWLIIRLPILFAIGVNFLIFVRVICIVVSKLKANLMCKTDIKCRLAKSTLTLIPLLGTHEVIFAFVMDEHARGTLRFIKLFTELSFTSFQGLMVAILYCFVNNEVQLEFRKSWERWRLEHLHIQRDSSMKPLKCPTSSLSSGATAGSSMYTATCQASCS

Row | Structure (SMILES) | Potency | activity change, negative = inhibition
1 | O=[N+]([O-])c1ccc(N2CCCCC2)nc1N1CCCCC1 | inconclusive [inhibitor, partial curve] | –
2 | CN(C)c1ccc(C(CNC(=O)c2ccccc2)N2CCc3ccccc32)cc1 (stereo not given) | – | inactive: 8.53%
3 | CCc1ccc(CN(Cc2ccco2)c2cnc(S(C)(=O)=O)nc2C(=O)Nc2cccc(C)c2)cc1 | inconclusive [inhibitor, full curve, poor fit] | –
4 | O=C(Cn1nnc(-c2cccc(C(F)(F)F)c2)n1)N1CCCCCC1 | inconclusive [inhibitor, single point] | –
5 | CCN(CC)CCCNC(=O)CSc1nc(-c2ccc(F)cc2)cc(C(F)(F)F)n1 | inconclusive [inhibitor, partial curve, poor fit] | –
6 | Cc1onc(-c2ccccc2Cl)c1C(=O)Nc1ccc(-n2nncc2-c2ccco2)cc1 | inconclusive [inhibitor, single point] | –
7 | O=C(O)Cn1cc(/C=N/Nc2ccc([N+](=O)[O-])cn2)c2ccccc21 | – | inactive: -22%
8 | O=C1Nc2ccccc2C(=O)N2CCCCC12 (stereo not given) | – | inactive: -5.58%
9 | CC(C)c1ccc(/C=C/C(=O)Nc2ccc(CN3CCOCC3)cc2)cc1 | inconclusive [inhibitor, single point] | –
10 | CC(C)c1ccc(S(=O)(=O)N2CCN(C(=O)Cc3ccsc3)CC2)cc1 | inconclusive [inhibitor, single point] | –
11 | COc1cc([N+](=O)[O-])cc(/C=N/NC(=O)c2cc(C)nc3ccccc23)c1O | inconclusive [inhibitor, partial curve, poor fit] | –
12 | Cn1ncc(Br)c1C(=O)NC1CCCCCCC1 | inconclusive [inhibitor, full curve] | –
13 | COc1ccc(S(=O)(=O)N(CC(=O)Nc2ccccc2Br)Cc2ccccc2)cc1 | inconclusive [inhibitor, partial curve, poor fit] | –
14 | Cc1nnnn1/C(=C\c1ccccc1)C(=O)OCC(=O)Nc1ccc(Cl)cc1F | inconclusive [inhibitor, single point] | –
15 | Oc1ccc(-c2onc3ccc(Cl)cc23)cc1 | inconclusive [inhibitor, single point] | –
16 | CC(C)OCCCn1c(=O)c2ccccc2n2c(-c3ccc(F)cc3)nnc12 | – | inactive: 1.18%
17 | O=C(c1cc2cc(Cl)ccc2[nH]1)N1CCN(C(=O)c2ccco2)CC1 | inconclusive [inhibitor, partial curve, poor fit] | –
18 | Cc1ccc(C2C(=O)N(C3CCCC3)CC(=O)N2C2CCCCC2)cc1 (stereo not given) | inconclusive [inhibitor, single point] | –
19 | Cc1ccc(S(=O)(=O)N2CCN(C(=O)COC(=O)CCOc3ccc(C(C)(C)C)cc3)CC2)cc1 | inconclusive [inhibitor, single point] | –
20 | O=C(CN1CCc2cc3c(cc2C1)OCCCO3)Nc1ccccc1 | inconclusive [inhibitor, single point] | –

Row | Structure (SMILES) | Potency | activity change, negative = inhibition
21 | O=C(N[C@@H](Cc1ccccc1)C(=O)CCl)OCc1ccccc1 | inconclusive [inhibitor, single point] | –
22 | COc1ccccc1NC(=O)CN1CCN(C2c3ccccc3-c3ccccc32)CC1 | inconclusive [inhibitor, partial curve, poor fit] | –
23 | CCOC(=O)c1c(C)[nH]c(C(=O)COC(=O)[C@H](C)N2C(=O)C3CCCCC3C2=O)c1C (stereo not given in full) | inconclusive [inhibitor, single point] | –
24 | O=C(NCc1ccc(F)cc1)C1CCN(S(=O)(=O)N2CCCCC2)CC1 | inconclusive [inhibitor, single point] | –
25 | Cc1ccc(S(=O)(=O)CCSc2nc(C)cc(C(F)(F)F)c2C#N)cc1 | inconclusive [inhibitor, single point] | –
26 | Cc1cccc(N2CCN(C(=O)c3ccc4ccccc4c3)CC2C)c1 (stereo not given) | inconclusive [inhibitor, single point] | –
27 | COc1ccccc1NC(=O)C(=O)NCC(c1ccc2c(c1)OCO2)N1CCN(C)CC1 (stereo not given) | – | inactive: -12.8%
28 | CCN1CCN(c2ncc3c(n2)CCN(Cc2cc(F)cc(F)c2)C3)CC1 | inconclusive [inhibitor, partial curve] | –
29 | COC(=O)C1=CN(CC2CCCO2)C=C(C(=O)OC)C1c1cc(OC)c(OC)c(OC)c1 (stereo not given) | – | inactive: 9.82%
30 | CCCCSc1cnn(-c2ccccc2)c(=O)c1SCCCC | inconclusive [inhibitor, partial curve, poor fit] | –
31 | Cc1cc2ccccc2c(=O)n1CC(=O)NCC1COc2ccccc2O1 (stereo not given) | inconclusive [inhibitor, full curve] | –
32 | COc1ccc(/C=C2\N=C(c3ccccc3Cl)NC2=O)cc1 | inconclusive [inhibitor, partial curve, poor fit] | –
33 | O=C(c1cccc(S(=O)(=O)N2CCc3ccccc32)c1)N1CCN(c2ccccc2)CC1 | inconclusive [inhibitor, single point] | –
34 | CC(=O)Oc1ccc(C(=O)[C@H]2[C@H]3C(=O)N(c4ccc(C)cc4)C(=O)[C@H]3[C@@H]3C=CC=NN32)cc1 | – | inactive: 4.53%
35 | O=C(c1ccccc1Cl)N1CCN(Cc2ccc3c(c2)OCO3)CC1 | inconclusive [inhibitor, single point] | –
36 | C/C(=N\Nc1ccc([N+](=O)[O-])cc1[N+](=O)[O-])c1ccc(-n2nncc2C(C)(C)C)cc1 | inconclusive [inhibitor, partial curve] | –
37 | CCOc1ccccc1C(=O)NCCNC(=O)c1ccccc1OCC | – | inactive: 18.3%
38 | CCCCc1c(Cc2cccc(F)c2)ncn1CCc1ccccc1OC | inconclusive [inhibitor, single point] | –
39 | O=C(NOCc1ccccc1)c1ccc([N+](=O)[O-])cc1 | inconclusive [inhibitor, single point] | –
40 | O=C(NCc1ccccn1)c1ccccc1OCc1ccccc1Cl | inconclusive [inhibitor, single point] | –

Reference: PubChem BioAssay AID624417 (National Center for Advancing Translational Sciences (NCATS), 2012)
